{"source": "PubChem BioAssay AID1259400", "about": "(National Center for Advancing Translational Sciences (NCATS), 2018)", "note": "About 2,100 (0.6%) of roughly 350,000 compounds were called active. This list was built around the results that the source calls inconclusive (neither active nor inactive); the mix of calls is not that of the screen.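 How the source made its calls: active means activity change of -60% or lower, but not beyond a set lower limit; inconclusive means change between -60% and -40%, or beyond the set limit; inactive means change above -40%.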 On the % scale 0 is the no-effect control and ±100 the full control effect.", "data": [{"target": "Relaxin receptor 1 (Homo sapiens) (UniProt Q9HBX9)", "sequence (Q9HBX9 whole entry, looked up)": "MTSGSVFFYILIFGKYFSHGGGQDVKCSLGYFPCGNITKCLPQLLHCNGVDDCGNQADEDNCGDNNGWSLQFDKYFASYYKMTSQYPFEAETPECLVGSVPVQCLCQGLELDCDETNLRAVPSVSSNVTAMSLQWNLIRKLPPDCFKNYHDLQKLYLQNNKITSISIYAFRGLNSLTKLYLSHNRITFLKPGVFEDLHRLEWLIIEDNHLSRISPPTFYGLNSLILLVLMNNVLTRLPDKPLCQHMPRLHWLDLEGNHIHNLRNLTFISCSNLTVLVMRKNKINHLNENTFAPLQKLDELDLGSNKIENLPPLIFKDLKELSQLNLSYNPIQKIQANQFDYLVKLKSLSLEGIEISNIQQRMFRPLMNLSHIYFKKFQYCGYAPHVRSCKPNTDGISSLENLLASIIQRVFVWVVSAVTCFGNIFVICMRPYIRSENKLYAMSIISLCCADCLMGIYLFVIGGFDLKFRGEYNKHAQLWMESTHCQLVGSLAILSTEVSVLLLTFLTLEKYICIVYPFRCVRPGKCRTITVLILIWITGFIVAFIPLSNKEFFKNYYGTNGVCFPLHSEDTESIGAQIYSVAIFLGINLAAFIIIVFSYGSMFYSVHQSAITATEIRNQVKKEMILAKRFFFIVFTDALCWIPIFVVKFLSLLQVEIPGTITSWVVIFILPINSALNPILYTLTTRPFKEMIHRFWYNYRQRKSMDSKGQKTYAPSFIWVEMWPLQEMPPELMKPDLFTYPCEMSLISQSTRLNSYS", "assay": "qHTS Assay for Antagonists of the Relaxin Receptor RXFP1", "details": "HEK293-RXFP1, relaxin-stimulated cAMP HTRF, 30 min; at 57.5 µM; hits give low values", "values": [{"smiles": "Cc1nc2nc(SCc3ccc(F)cc3Cl)nn2c(C)c1Cc1ccccc1", "activity change, negative = inhibition": "inconclusive: -42.2%"}, {"smiles": "O=C(CN1C(=O)/C(=C/c2ccccc2Cl)SC1=S)NC1C=CS(=O)(=O)C1", "note": "(stereo not given)", "activity change, negative = inhibition": "active: -60.9%"}, {"smiles": "CC1=NOC(=O)/C1=C\\c1ccc(-c2ccccc2Br)o1", "activity change, negative = inhibition": "inactive: -9.37%"}, {"smiles": "CC(=O)Nc1cccc(Oc2ncnc3scc(-c4ccc(C)cc4)c23)c1", "activity change, negative = inhibition": "inconclusive: -42.7%"}, {"smiles": "O=C(NC(=S)NNC(=O)c1ccccc1O)c1ccco1", "activity change, negative = inhibition": "inactive: -16.7%"}, {"smiles": "O=C(/C=C/c1ccc(Cl)c([N+](=O)[O-])c1)Nc1ccc(N2CCCC2)c(Cl)c1", "activity change, negative = inhibition": "inconclusive: -42.9%"}, {"smiles": "CCCCOC(=O)CNc1nnc(SCC(=O)OCC)[nH]c1=O", "activity change, negative = inhibition": "inconclusive: -53.5%"}, {"smiles": "Cc1[nH]n(-c2ncc(-c3ccccc3)s2)c(=O)c1C(c1ccc(Cl)cc1)C(C#N)C#N", "note": "(stereo not given)", "activity change, negative = inhibition": "inconclusive: -49.2%"}, {"smiles": "CC(C)OC(=O)c1cn(-c2ccccc2)nc1-c1ccco1", "activity change, negative = inhibition": "inconclusive: -55.6%"}, {"smiles": "COc1cc2c(cc1OC)CN(C1CCC(C(C)(C)C)CC1)CC2", "note": "(stereo not given)", "activity change, negative = inhibition": "inconclusive: -43.8%"}, {"smiles": "O=C(O)/C=C/C(=O)NC1CCC(CC2CCC(NC(=O)/C=C/C(=O)O)CC2)CC1", "note": "(stereo not given)", "activity change, negative = inhibition": "inconclusive: -50.8%"}, {"smiles": "CC(C)(C)c1ccc(C(=O)Nc2ccc(F)cc2)s1", "activity change, negative = inhibition": "inconclusive: -42.5%"}, {"smiles": "COc1ccc(/C=N/NC(=O)c2cccnc2)cc1COc1ccc(NC(C)=O)cc1", "activity change, negative = inhibition": "inconclusive: -45.3%"}, {"smiles": "Nc1ccc(S(=O)(=O)Nc2nccc(/C=C/c3ccc(Cl)cc3Cl)n2)cc1", "activity change, negative = inhibition": "inconclusive: -48.8%"}, {"smiles": "NC(=O)c1ccsc1NC(=O)CN1CCN(S(=O)(=O)c2ccccc2C(F)(F)F)CC1", "activity change, negative = inhibition": "inconclusive: -59.1%"}, {"smiles": "CC(C)CCC(CCNCc1ccccn1)c1ccc(Cl)cc1", "note": "(stereo not given)", "activity change, negative = inhibition": "active: -68.6%"}, {"smiles": "COC(=O)C(C)Sc1nc2c([nH]c3ccccc32)c(=O)n1C", "note": "(stereo not given)", "activity change, negative = inhibition": "inconclusive: -41.6%"}, {"smiles": "O=C(/C=C/c1ccc(F)cc1)Nc1cccc(S(=O)(=O)N2CCOCC2)c1", "activity change, negative = inhibition": "inconclusive: -43.1%"}, {"smiles": "CCOc1ccc(NC(=O)c2cnc(N3CCCCC3)c3ccccc23)cc1", "activity change, negative = inhibition": "inconclusive: -54.2%"}, {"smiles": "Cc1nn2c(NCCN3CCOCC3)c3c(nc2c1-c1ccccc1)CCCC3", "activity change, negative = inhibition": "inconclusive: -41.8%"}, {"smiles": "COc1ccc(C(=O)/C=C2\\C(=O)Nc3ccc(Br)cc32)cc1", "activity change, negative = inhibition": "active: -75%"}, {"smiles": "Fc1ccc(-c2cc(C(F)(F)F)nc(NCC3CCCO3)n2)cc1", "note": "(stereo not given)", "activity change, negative = inhibition": "inconclusive: -45.5%"}, {"smiles": "Cc1coc2c1c(C)cc1oc(=O)c(CC(=O)NCCCCCC(=O)O)c(C)c12", "activity change, negative = inhibition": "inactive: -10.2%"}, {"smiles": "COc1ccccc1N1CCN(C(CNS(=O)(=O)c2ccccc2)c2ccccc2)CC1", "note": "(stereo not given)", "activity change, negative = inhibition": "inconclusive: -52.9%"}, {"smiles": "O=C(CSc1nnnn1-c1cccnc1)Nc1ccccc1F", "activity change, negative = inhibition": "inactive: -13.5%"}, {"smiles": "Cc1cc(=O)oc2cc(OC(C)C(=O)Nc3ccc(C(N)=O)cc3)ccc12", "note": "(stereo not given)", "activity change, negative = inhibition": "inactive: 9.31%"}, {"smiles": "Cc1ccc2nc(-c3ccc4c(c3)NC(=O)CO4)cn2c1", "activity change, negative = inhibition": "inconclusive: -47.5%"}, {"smiles": "CC(C)c1ccc(N(C(=O)c2snc(C(N)=O)c2N)C(C(=O)NCC2CCCO2)c2ccc(N(C)C)cc2)cc1", "note": "(stereo not given)", "activity change, negative = inhibition": "active: -74.4%"}, {"smiles": "CCCCN(CC)c1nc(-c2ccncc2)nc2ccccc12", "activity change, negative = inhibition": "inconclusive: -47.5%"}, {"smiles": "Cn1cccc1Cc1nnc(SCC(=O)Nc2ccc(Cl)cc2)n1-c1ccc(F)cc1", "activity change, negative = inhibition": "inconclusive: -40.8%"}, {"smiles": "O=C(COc1cccc2cccnc12)N/N=C/c1cccn1-c1ccc(F)cc1", "activity change, negative = inhibition": "inconclusive: -51.9%"}, {"smiles": "CCCCC(=O)OCC(=O)[C@H]1[C@H](C)C[C@H]2[C@@H]3C[C@H](F)C4=CC(=O)C=C[C@]4(C)[C@@]3(F)[C@@H](O)C[C@@]21C", "activity change, negative = inhibition": "inconclusive: -54.1%"}, {"smiles": "COc1cc(C2C(C(=O)c3ccc(C)o3)=C(O)C(=O)N2CCN2CCOCC2)ccc1OCCC(C)C", "note": "(stereo not given)", "activity change, negative = inhibition": "inactive: 7.73%"}, {"smiles": "Nc1ccc2c(O)cc(S(=O)(=O)O)cc2c1", "activity change, negative = inhibition": "inconclusive: -50.1%"}, {"smiles": "CCc1ccc(C2C(C#N)=C(N)OC3=C2C(=O)CCC3)s1", "note": "(stereo not given)", "activity change, negative = inhibition": "inconclusive: -43.2%"}, {"smiles": "CC(NCC(=O)NC(=O)NC1CCCC1)c1ccc(Cl)cc1Cl", "note": "(stereo not given)", "activity change, negative = inhibition": "active: -63.3%"}, {"smiles": "O=C(Nc1ccc(F)cc1F)c1ccco1", "activity change, negative = inhibition": "inactive: 2.53%"}, {"smiles": "COc1cnc(-c2ccccn2)nc1N(C)c1ccccc1", "activity change, negative = inhibition": "inconclusive: -41.3%"}, {"smiles": "COc1ccc(C(=O)Nc2ccc(NC(=O)c3cccs3)cc2)cc1Cl", "activity change, negative = inhibition": "inactive: -6.51%"}, {"smiles": "C=CCn1c(=O)c(CCC(=O)Nc2ccc(N3CCOCC3)cc2)nc2cc(C(F)(F)F)ccc21", "activity change, negative = inhibition": "active: -67.7%"}, {"smiles": "COc1ccc(S(=O)(=O)Nc2ccc3c(c2)CCC3)cc1", "activity change, negative = inhibition": "inconclusive: -40.1%"}, {"smiles": "CC(C)COC(=O)c1ccc(N2C(=O)c3ccccc3C2=O)cc1", "activity change, negative = inhibition": "inconclusive: -45.3%"}, {"smiles": "O=c1c(-c2ccc(Cl)cc2)[n+]([O-])c2ccccc2n1OCc1nc2ccccc2[nH]1", "activity change, negative = inhibition": "inconclusive: -45.7%"}, {"smiles": "CC(C)(C)c1cc(C(=O)CCN2CCOCC2)cc(C(C)(C)C)c1O", "activity change, negative = inhibition": "active: -82.7%"}, {"smiles": "CN(Cc1cc(Br)cc(Br)c1N)C1CCCCC1", "activity change, negative = inhibition": "inconclusive: -41.3%"}, {"smiles": "CC(C)(C)c1ccc(NC(=O)CSc2nnc3scc(-c4ccccc4)n23)cc1", "activity change, negative = inhibition": "inactive: -24.7%"}, {"smiles": "CC(C)(C)c1ccc(NC(=O)N2CCN(c3ccc([N+](=O)[O-])cn3)CC2)cc1", "activity change, negative = inhibition": "inconclusive: -41%"}, {"smiles": "S=C(NCc1ccco1)N/N=C/c1ccc(Cl)cc1", "activity change, negative = inhibition": "inactive: -13%"}, {"smiles": "COc1ccc(/C=C2/C(=O)N(c3ccccc3)N=C2C)cc1", "activity change, negative = inhibition": "active: -60.6%"}, {"smiles": "Cc1cc(-c2nnc3n2N=C(c2ccc(-c4ccccc4)cc2)CS3)n[nH]1", "activity change, negative = inhibition": "inconclusive: -45.5%"}, {"smiles": "Cn1cnc2c(F)c(Nc3ccc(Br)cc3Cl)c(C(=O)NOCCO)cc21", "activity change, negative = inhibition": "inactive: -6.4%"}, {"smiles": "Cc1cccc(CNC(=O)C2CCN(c3nc4ccc(Cl)cc4[nH]3)CC2)c1", "activity change, negative = inhibition": "active: -72.1%"}, {"smiles": "COc1ccc(C2CC(c3ccc(Br)cc3)=NN2C(=O)c2cccnc2)cc1", "note": "(stereo not given)", "activity change, negative = inhibition": "inconclusive: -41.6%"}, {"smiles": "CC(C)(C)NC(=O)c1cnn2c(C(F)F)cc(-c3ccccc3)nc12", "activity change, negative = inhibition": "inconclusive: -41.7%"}, {"smiles": "C=CCc1ccc(OCCOc2cccc3ccc(C)nc23)c(OC)c1", "activity change, negative = inhibition": "inconclusive: -51.9%"}]}]}
